Experimental data published in publication PMC10668032.
The other results are listed elsewhere or left out. At the low end of the ranking the order means little.

What follows are sequences tested against SIX1-Q177R homeodomain (UniProt Q15475) (assay: universal protein binding microarray). Settings: Universal all-10-mer PBM (8x60K, AMADID 030236), 300 nM GST-tagged protein, Alexa Fluor 488 anti-GST; buffer, salt, pH and temperature not stated; high values mean tight binding; most listed sequences are background and not binding sites; double strand, one strand shown.

| Sequence | binding signal |
| --- | --- |
| CGTGACGA | -0.112 E-score |
| AGATAGGG | -0.0624 E-score |
| GCGATAGC | -0.288 E-score |
| GATTGGCA | -0.0742 E-score |
| GAAATGGC | -0.294 E-score |
| ATGAGGCG | -0.012 E-score |
| ACCAGAAA | 0.0552 E-score |
| CTCGCCAC | 0.0837 E-score |
| AGGTTCTG | -0.103 E-score |
| CGATTCTA | -0.136 E-score |
| ATTAAGAA | -0.167 E-score |
| AGTCTCGA | 0.00588 E-score |
| GTCAAATA | -0.1 E-score |
| CTCGACAA | -0.174 E-score |
| CCTCTGAG | 0.0637 E-score |
| AAAAGGCG | -0.195 E-score |
| AGGTCACA | 0.0031 E-score |
| AGGAGGAC | 0.0214 E-score |
| AGAAGGCA | -0.166 E-score |
| CACCCGTA | 0.274 E-score |
| TAAACCGA | -0.0276 E-score |
| AGTTCAGC | -0.0777 E-score |
| GCGGATCC | 0.0909 E-score |
| CCCTCTAG | 0.0327 E-score |
| CTTGGGAA | -0.232 E-score |

| Sequence | binding signal |
| --- | --- |
| CACCAGGC | 0.336 E-score |
| GCTGTTCC | -0.23 E-score |
| AACTCACA | 0.174 E-score |
| ATAGCCAA | -0.0885 E-score |
| AGTGCTCC | -0.122 E-score |
| CCTCCGTC | -0.0215 E-score |
| AAAGGGCA | -0.152 E-score |
| CCCCGCTA | 0.199 E-score |
| CTTCATTA | -0.146 E-score |
| CTACGAAC | 0.0786 E-score |
| CTCCGTAA | -0.0605 E-score |
| CAAAGTTA | -0.178 E-score |
| CGACTTCA | -0.124 E-score |
| CACCTCAA | 0.173 E-score |
| AGCACGCG | -0.0022 E-score |
| ACCTACTA | 0.0436 E-score |
| CATCGAAA | -0.0904 E-score |
| ACTACCAG | 0.0534 E-score |
| CCCAATAC | 0.17 E-score |
| AAAGGCTG | 0.024 E-score |
| GACGACGA | -0.18 E-score |
| CATGAACC | 0.0431 E-score |
| AGAGCTAG | -0.115 E-score |
| CCAAACAG | 0.103 E-score |
| CCATTCGG | -0.00211 E-score |

| Sequence | binding signal |
| --- | --- |
| CCATTTTC | -0.282 E-score |
| CCCAAAAA | -0.0298 E-score |
| CCGGCGCA | -0.00329 E-score |
| AAGTGTGG | 0.169 E-score |
| CAGACCAC | -0.0711 E-score |
| ATCATTAG | -0.0688 E-score |
| CAGCTTTC | -0.177 E-score |
| CCCGCCTC | -0.00224 E-score |
| AGTTATCC | 0.139 E-score |
| CAAGGTGG | 0.128 E-score |
| AAGCAGGA | 0.0105 E-score |
| GCGTTTAA | -0.0771 E-score |
| CGTTGATA | 0.113 E-score |
| CGGCGAGA | -0.183 E-score |
| TCACTGCA | -0.0896 E-score |
| CTAGAGCC | -0.245 E-score |
| ACTGCACA | 0.0701 E-score |
| CGTAAACC | 0.115 E-score |
| AAGACCAT | -0.308 E-score |
| GGATGGGA | 0.0747 E-score |
| ACCCGATC | 0.253 E-score |
| ACAGACTA | -0.251 E-score |
| CCGACGCG | 0.152 E-score |
| CAGCCGTA | 0.0129 E-score |
| CTTAATAC | 0.0914 E-score |

| Sequence | binding signal |
| --- | --- |
| ACCATTAG | 0.138 E-score |
| ATCTTGGG | 0.0195 E-score |
| AAGGGTCT | -0.209 E-score |
| GGGGGCGA | 0.0949 E-score |
| AATAGCTA | -0.173 E-score |
| GTAGAGAA | -0.0335 E-score |
| TAATTGAA | -0.109 E-score |
| AATGTAAC | -0.0605 E-score |
| TATATCGA | -0.0963 E-score |
| GCACAAGC | 0.0534 E-score |
| ATCATTTG | -0.0912 E-score |
| GCCTCATA | -0.332 E-score |
| GGACACAC | 0.382 E-score |
| CGGCGCGC | -0.024 E-score |
| AGATGCAA | -0.124 E-score |
| GAAAGATA | -0.0527 E-score |
| AGATTTAC | 0.0262 E-score |
| AATCAGGG | 0.11 E-score |
| TGCTGAAA | 0.0355 E-score |
| AAGGCATG | -0.184 E-score |
| GCTGGGGA | -0.0864 E-score |
| GCTTACGA | -0.148 E-score |
| TCCATTCA | -0.0755 E-score |
| GAATTACC | -0.0299 E-score |
| ACACTCAT | 0.388 E-score |

| Sequence | binding signal |
| --- | --- |
| AACGTCCC | 0.0168 E-score |
| CTGTATAA | -0.111 E-score |
| CGGCCCTA | -0.164 E-score |
| GACTAATC | -0.0535 E-score |
| CAGCGACG | -0.0388 E-score |
| ATTTTCAA | -0.156 E-score |
| CGCACGGA | 0.0155 E-score |
| TAGAGCGA | -0.112 E-score |
| ACACGTGC | 0.383 E-score |
| ATCCCTAA | -0.0953 E-score |
| CCATGCGC | -0.162 E-score |
| ATCGCGCA | -0.0917 E-score |
| CGCTGCCA | -0.196 E-score |
| ATCGGTCG | -0.148 E-score |
| AGGACAAT | -0.0174 E-score |
| CAAAATCC | 0.075 E-score |
| AGCATAAT | -0.122 E-score |
| CAGGTAGG | 0.0913 E-score |
| GCTGCTCA | -0.139 E-score |
| CTCTTAAC | -0.0233 E-score |
| CTGAGATC | -0.119 E-score |
| GGGGCATA | 0.00299 E-score |
| AACTCGAA | -0.174 E-score |
| GCTATGGA | -0.0524 E-score |
| CTAAATAC | -0.114 E-score |

| Sequence | binding signal |
| --- | --- |
| GCAAGACC | -0.0777 E-score |
| ATGGTATC | 0.334 E-score |
| GAACAGGC | -0.0699 E-score |
| TGCCAAAA | -0.101 E-score |
| AGGCATGG | -0.103 E-score |
| GAAAGTTA | -0.0553 E-score |
| ATTGCGTA | -0.09 E-score |
| GGATCTGA | 0.194 E-score |
| GCTGACGA | -0.276 E-score |
| CTACCTGA | -0.0091 E-score |
| ATGCCTCA | -0.104 E-score |
| GGTGCCCA | 0.0265 E-score |
| GGAGCTAA | -0.0861 E-score |
| GTGTGAGA | 0.291 E-score |
| ACCGTCTC | 0.0739 E-score |
| GATAGCAA | -0.122 E-score |
| CATCCTTC | -0.117 E-score |
| GAGCGTGA | -0.103 E-score |
| AGGTGTGC | 0.322 E-score |
| AATCAATT | -0.0901 E-score |
| GGTTCACA | 0.18 E-score |
| ATGCTGCC | -0.158 E-score |
| AAACAACC | -0.234 E-score |
| GGGTTCCA | 0.106 E-score |
| TTCCCAAA | -0.0477 E-score |

| Sequence | binding signal |
| --- | --- |
| AATGCCAT | -0.3 E-score |
| AGGGCTTG | -0.155 E-score |
| CGGTTCTA | -0.176 E-score |
| CAAGCACA | 0.0903 E-score |
| AAATGATC | -0.176 E-score |
| CGCAGGCA | 0.0169 E-score |
| TGAATACA | -0.0283 E-score |
| GGACGTGA | -0.164 E-score |
| CAGAAAGC | -0.266 E-score |
| ATACAGTA | 0.148 E-score |
| AAGTAAGA | -0.193 E-score |
| CGCCGACC | 0.057 E-score |
| AGTTCATC | -0.0814 E-score |
| AATTAAGG | -0.0173 E-score |
| AACGCGGC | 0.0656 E-score |
| ATCATAGA | -0.0945 E-score |
| CATGGACC | -0.0734 E-score |
| GAACCGTC | -0.341 E-score |
| CCCGCGTA | 0.154 E-score |
| GGAACTAA | -0.118 E-score |
| GCACCCCC | 0.311 E-score |
| ACCTTCTG | 0.0534 E-score |
| TGCTCGAA | -0.136 E-score |
| AGCCCTCA | -0.175 E-score |
| CACAAAGG | 0.0813 E-score |

| Sequence | binding signal |
| --- | --- |
| CCGCCTTA | 0.0759 E-score |
| AGCGCAAT | -0.0836 E-score |
| GCATTGTA | -0.0533 E-score |
| ACGCGTTC | -0.0207 E-score |
| ACTCTTTA | -0.0307 E-score |
| CAATTCTG | -0.115 E-score |
| GCGGAAAA | -0.168 E-score |
| CGATATGC | -0.0535 E-score |
| GCGCCTGA | -0.207 E-score |
| CCGTGCTC | 0.226 E-score |
| CGTTCTTA | -0.181 E-score |
| CGCGGCAC | 0.0937 E-score |
| ACTTGTTC | 0.051 E-score |
| GGTACGAA | -0.00792 E-score |
| ACTCTCAG | -0.0985 E-score |
| ATCTTTCG | -0.243 E-score |
| ACGGCGAT | 0.119 E-score |
| ACAAAGGT | -0.00545 E-score |
| AACGCCTC | -0.0265 E-score |
| CCTTCTCC | -0.132 E-score |
| GTCAAGCA | 0.0299 E-score |
| CATGTTGG | -0.143 E-score |
| AACCTTTG | -0.197 E-score |
| CAGCATGA | -0.0327 E-score |
| CGATGGCG | -0.14 E-score |

| Sequence | binding signal |
| --- | --- |
| CCCGCCTA | 0.115 E-score |
| GCCGATTA | -0.0279 E-score |
| GCCCTCAC | 0.00021 E-score |
| CTTCCGGC | -0.0371 E-score |
| CACAGTGC | 0.083 E-score |
| CCGGGCCG | 0.0575 E-score |
| CGAATTCG | -0.134 E-score |
| ATATCTAA | -0.24 E-score |
| TCATATAA | -0.0684 E-score |
| ACTCGGAG | 0.133 E-score |
| AAGTAACG | -0.0723 E-score |
| CGAAGGAG | -0.0784 E-score |
| ATTAAGCG | -0.0725 E-score |
| ACGCGAAC | 0.0156 E-score |
| ACTAACTG | -0.00822 E-score |
| TGTGGTAA | 0.0139 E-score |
| GACGTCAA | -0.181 E-score |
| ACGCCCTA | 0.0842 E-score |
| TGCGGCAA | -0.189 E-score |
